From the RNAGym collection of RNA variant scans (doi:10.1073/pnas.2313332121)
Variants at the background level are over-represented here.

B1: TPR 5TU (parent)
chain: GGAUCUUCUCGAUCUAACAAAAAAGACAAAUCUGCCACAAAGCUUGAGAGCAUCUUCGGAUGCAGAGGCGGCAGCCUUCGGUGGCGCGAUAGCGCCAACGUUCUCAACUAUGACACGCAAAACGCGUGCUCCGUUGAAUGGAGUUUAUCAUG

Variants of: B1
Test: polymerase ribozyme fitness, log enrichment relative to wild type (log ratio); higher = more active; in vitro selection for triplet polymerase activity
How it was run: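 Both subunits of a heterodimeric triplet polymerase ribozyme were given their own mutant library, built by PCR and transcribed. Each library was annealed with a biotinylated primer, the partner subunit and triplets, incubated frozen at −7 °C, and its extended constructs gel-excised, captured on streptavidin beads and amplified by RT-PCR, all in one round done in triplicate. Fitness is the logarithm of genotype enrichment relative to wild-type enrichment, with replicates averaged by inverse-variance weighting. That logarithm is base 2, and Illumina-sequenced genotypes needed ≥10 input reads and ≥1 read per output.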

Variant	polymerase ribozyme fitness (log ratio)
GGAUCUUCUCGAUCUAACAAAAAAGACAAAUCUACCACAAAGCUUGAGAGCGUCUUCGGAUGCAGAGGCGGCAGCCUUCGGUUGCGCCAUAGCGCCAACGUUAUCAACUAUGACACGUAAAACGCGUGCUCCGUUGAAGGUAGUUUAUCAUG [G34A A52G G83U G88C C103A C118U U139G G141U]	≤ -4.2
GGAUCUUCUCGAUCUAACAAAAAAGACAAAUCGUCCACAAGGCUUGAGAGCAUCUUCGGAUGCAGAGGCGGCAACCCUCGGUGGCGCGAUAGCGCCAACGUUCUCAACUAUGACACGCAAAACGCGUGCCCCGUUGAAAGGAGUUUAUCAUG [U33G G34U A41G G74A U77C U130C U139A]	≤ -4.2
GGAUCUUCUCGAUCUAACAAAAAAGACAAAUCGGCCACAAAGCUUGAGAGCAUCUUCGGAUGCAGAGGCGGCAGCCUUCGGUGGCGCGAUAGCUCCAACGUUCUCAACUAUGACACGCAAAACGCAUGCUCCGUUGAAUGGAGUUUAUCAUG [U33G G94U G126A]	≤ -4.2
GGAUCUUCUCGAUCUAACAAAAAAGACAAAUCGGCCACAAAGCGUGAGAGCAUCUUCGGAUGCAGAGGCGGCAGCCUUCGGUGGGGCGAUGGCGCCAACGUUCUCAACUAUGACACGCAAAACGCGUGCUCCGUUGAAUGGAGUUUAUCAAG [U33G U44G C85G A91G U151A]	≤ -4.2
GGAUCUUCUCGAUCUAACAAAAAAGACAAAUCUACUACAAAGCUUGAGAGCAUCUUCGGAUGCAGAGGCGGCAGCCUUCGGUGGCGCGAUAGCGCCAACGUUCUAAUCUAUGACACGCAAAACGCGUGCUCCGUUGAAUGGAGUUUAUCAUG [G34A C36U C105A A107U]	≤ -4.2
GGAUCUUCUCGAUCUAACAAAAAAGACAAAUCUACCACAAAGCUUGCGAGCAUCUUCGAAUGCAGAGGCGGCAGCCUUCGGUGGCGCGAUGGCGCCAACGUUCUCAACUAUGACACGCAAAACGCGUGCUCCGUUGAAUGGAGUUUAUCAUG [G34A A47C G59A A91G]	≤ -4.2
GGAUCUUCUCGAUCUAACAAAAAAGACAAAUCUACCACAAAGCUUGAGAGCAUCUUCGGAUGCAGAGGCGGCAGCCUUCGGUGGCGCGGUAGCGCCAACGUUCUCAACUUUGACACGCAAAACGCGUGCUCCGUUGAAUGGAGUUUAUCAUG [G34A A89G A110U]	≤ -4.2
GGAUCUUCUCGAUCUAACAAAAAAGACAAAUCGGCCACAAAGCUUGAGAGCAUCUUAGGAUGCAGAGGCGGCAGCCUUCGGUGGCGCGAUGGCGCCAACGUUCUCAACUAUGACACGCAAAACGCGUGCUCCGUUGUAUGGAGUUUAUCAUG [U33G C57A A91G A137U]	≤ -4.2
GGAUCUUCUCGAUCUAACAAAAAAGACAAAUCUACCACAAAGUUUGAGAGCAUCAUCCGAUGCAGCGGCGACAGCCUUCGGUGGCGCGUUAGCGUCAACGUUCUCAACUAUGACACGCAAUACGCGUGCUCCGUUGAAUGGCGUUUAUCAUG [G34A C43U U55A G58C A66C G71A A89U C95U A121U A142C]	≤ -4.2
GGAUCUUCUCGAUCUAACAAAAAAGACAAAUCGGCCACAAAGCUUGAAAGCAUUUUCGGAUCCAGAGGCGGCAGCCUUCGGUGGCGCGAUAGCGCCAACGUUCUCAACUAUGACACGCAAAACGCGUGCUCCGUUGAAUGGAGUUUAUCAUG [U33G G48A C54U G62C]	≤ -4.2
GGAUCUUCUCGAUCUAACAAAAAAGACAAAUCGGCCACAAAGCGUGAGAGCAUCUUCGGCUGCAGAGGCGGCAGCCUUCGGGGGCGCGAUAGCGCCAACGUUCUCAACUAUGACACGCAAAUCGUGUGCUCCGUUGAAUGGAGUUUAUCAUG [U33G U44G A60C U82G A122U C125U]	≤ -4.2
GGAUCUUCUCGAUCUAACAAAAAAGACAAAUCUACAACAAAGCUUGAGAGCAUCUGCGGAUGCAGAGGCGGCAGCCUUCGGUGGCGCGAUAGCGUCAACGUUCUCAACUAUGACACGCAAAACGCGUGCUCCGUUGAAUGGAGCUUAUCAUG [G34A C36A U56G C95U U144C]	≤ -4.2
GGAUCUUCUCGAUCUAACAAAAAAGACAAAUCGGCCACAAAGCUUGAGAGCAUCUUCGGAAGCAGAGGCGGCAGCCUUAGGUGGCGCGAUUGCGACAACGUUCUCAACUAUGACACGCAAAACGCGUGCUCCGUUGAAUGGAGUUUAUCAUG [U33G U61A C79A A91U C95A]	≤ -4.2
GGAUCUUCUCGAUCUAACAAAAAAGACAAAUCUACCACAAAGCUUGAGAGCAUCUUCGGAUGCAGAGGCGGCAGCCUUCGGUGGCGCGAUAGCGAGGACUUUCUCAACUAUGACACGCAAAACGCGUGCUACGUUGAAUGGAGUUUAUCAUG [G34A C95A C96G A97G G100U C131A]	≤ -4.2
GGAUCUUCUCGAUCUAACAAAAAAGACAAAUCGGCCACAAAGCUUGAGAGCAUCUUCGGAUGCAGAGGCGGCAGCCUUUGCUGGCACGAUAGCGCCAACGUUCUCAACUAUGAAACGCAAAACGCGUGCUCCGUUGAAUAGAGUUUAUCAUG [U33G C79U G81C G86A C114A G140A]	≤ -4.2
GGAUCUUCUCGAUCUAACAAAAAAGACAAAUCGGCCACAAAGCUUGAGAGCAUCUUCGGAUGCAGAGUCGGAAGCCUUCGGUGGCGCGAUACCGCCAACGUUCUCAGCUAUGACACGCAAACCGCGUGCUCCGUUGAAUGGAGUGUAUCGUG [U33G G68U C72A G92C A107G A122C U145G A150G]	≤ -4.2
GGAUCUUCUCGAUCUAACAAAAAAGACAAAUCUCCCACAAAGCUUGAGAGCAGCUUCAGAUGAAGAGGUCGCAGCCUUCGGUGGCGCGAUAGCGCCAACGUUCUCAACUAUGUCACGCAAAAAGCGUGCUCCGUUGAAUGGAGUUUAUCAUG [G34C U53G G58A C63A C69U G70C A113U C123A]	≤ -4.2
GGAUCUUCUCGAUCUAACAAAAAAGACAAAUCGGCCACAAAGCUUGAGAGCAUCUUCGGAUGCAGAGGCGGCAGCCUUCGGUGGCGCGAUAGGGCCAACGUUCUCAGCUUUGACACGCGAAACGCGUGCUCCGUUGUAUGGAGUUUAUCAGG [U33G C93G A107G A110U A119G A137U U151G]	≤ -4.2
GGAUCUUCUCGAUCUAACAAAAAAGACAAAUCUUCCACAAAGCUUGAGAGCAUCUUCGGAUGCAGAGGCGGCAGCCUUCGGUGGCGCGAUUGCGCCAACGUUCUCAAAUAUGACACGCAAAAUGCGUGCUCCGUUGAAUGGAGUUUAUCAUG [G34U A91U C108A C123U]	≤ -4.2
